Reference: PubChem BioAssay AID2675 (National Center for Advancing Translational Sciences (NCATS), 2010)
The campaign covered roughly 280,000 compounds. About 100 (0.036%) were called active. The inconclusive results got no clear call from the source; some entries with a clear call stand among them for comparison. Calls follow the shape of the dose curve; as a rule, active = well fitted inhibition curve with a large enough effect in the signal ratio, with a control signal flat (not every such curve was filed as active); inconclusive = small, poorly fitted or top-dose-only effect, or effect the other way, or a change in a side signal; inactive = no such curve, though single readings can be large or run the other way; the % refers to the signal ratio. A potency beside an inconclusive call is a rough fit, not a confirmed value. “Side channel” marks fits to a control or component signal instead of the main read-out.
Potency is read from the fitted curve at half-maximal effect; tags tell the direction and shape of the fitted curve or compound fluorescence and quenching.

What follows are compounds tested against Muscleblind-like protein 1 (Homo sapiens) (UniProt Q9NR56) (assay: qHTS Assay for Inhibitors of MBNL1-poly(CUG) RNA binding). Conditions: TR-FRET MBNL1-His/biotin-(CUG)12 binding, 665/545 ratio; series mostly up to 57.5 µM.
Chain of UniProt Q9NR56 (Q9NR56 whole entry, looked up): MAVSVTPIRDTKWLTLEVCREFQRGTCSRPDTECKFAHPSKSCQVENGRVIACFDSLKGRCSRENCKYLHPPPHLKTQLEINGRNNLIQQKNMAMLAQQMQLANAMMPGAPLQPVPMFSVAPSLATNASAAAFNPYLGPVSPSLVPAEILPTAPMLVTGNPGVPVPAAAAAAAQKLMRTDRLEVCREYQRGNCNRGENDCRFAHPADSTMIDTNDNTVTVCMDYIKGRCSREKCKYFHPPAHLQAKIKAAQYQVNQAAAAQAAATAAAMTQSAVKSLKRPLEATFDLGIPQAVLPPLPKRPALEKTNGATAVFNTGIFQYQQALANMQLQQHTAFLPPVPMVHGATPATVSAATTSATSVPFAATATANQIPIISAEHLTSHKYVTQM
Outline: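 Compound titration spanned 92 nM–58 uM against the MBNL1-His/biotin-(CUG)12 complex. After 60 min at room temperature with 5 nM streptavidin-XL665 and 0.055 ng/ul terbium anti-His, ratiometric 665/545 nm emission (Ex 340 nm) normalized to controls.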
For `O=C(NC(=S)N1CCN(c2ccccn2)CC1)c1ccco1`, the Potency was “inactive”.
With `Cc1ccccc1NC(=O)c1ccc2nccnc2c1` the Potency was inconclusive: 14.1 µM [quencher, partial curve].
`Clc1ccccc1-c1nc(-c2cccnc2)no1` was tested, and the Potency was “inactive”.
For `COc1ccccc1OCC(O)COC(N)=O` (stereo unspecified), the Potency was “inactive”.
With `CCOC(=O)C1CCCN(C(=O)c2cc3cc4ccc(OC)cc4nc3o2)C1` (stereo unspecified) the Potency was inconclusive: 14.1 µM [quencher, side channel, partial curve].
`O=[N+]([O-])c1cc(Cl)c2cccnc2c1O` was tested, and the Potency was inconclusive: 39.8 µM [quencher, single point].
For `CC1(OC(=O)CCc2ccccc2)C(=O)C=C2C=C(c3ccc(C#N)cc3)N(CCN3CCOCC3)C=C2C1=O` (stereo unspecified), the Potency was inconclusive: 15.8 µM [quencher, side channel, partial curve].
In the case of `CN(C)S(=O)(=O)c1ccc(Cl)c(C(=O)NC2CCN(Cc3ccccc3)C2)c1` (stereo unspecified), the Potency is reported as “inactive”.
With `COc1ccc(C(=O)C2CCCN(Cc3cccn3-c3ccc(Cl)cn3)C2)c(OC)c1` (stereo unspecified) the Potency was “inactive”.
For `COc1ccccc1NC(=O)COC(=O)c1ccc([N+](=O)[O-])s1`, the Potency was inconclusive: 14.1 µM [quencher, side channel, partial curve].
`O=C(C[n+]1cnn(CC(=O)c2ccc(Cl)cc2Cl)c1)c1ccc([N+](=O)[O-])cc1` was tested, and the Potency was inconclusive: 28.2 µM [quencher, side channel, partial curve].
For `COc1cc(NC(=O)Nn2cnnc2)cc(OC)c1OC`, the Potency was “inactive”.
In the case of `CCOC(=O)c1c(C)oc2c(F)c(F)c(F)c(F)c2c1=O`, the Potency is reported as inconclusive: 79.4 µM [inhibitor, partial curve].
For `CC(=O)OCC1O[C@@H](O[C@@H]2C[C@H]3C(C)(C)[C@H](OC(C)=O)CC[C@]3(C)[C@H]3CC[C@]45C[C@]4(CC[C@H]5[C@@H](C)C[C@@H](O)[C@H](O)C(C)(C)O)[C@@]32C)[C@H](O)[C@@H](O)[C@@H]1O` (stereo partly specified), the Potency was inconclusive: 0.1 µM [fluorescent, side channel, full curve, poor fit].
In the case of `Cc1ccc(-c2nc(=O)[nH]c3ccccc23)cc1`, the Potency is reported as inconclusive: 17.8 µM [quencher, side channel, partial curve].
For `CCOC(=O)C1Cc2cc3c(cc2C1=O)CC(C(=O)OCC)C3=O` (stereo unspecified), the Potency was inconclusive: 31.6 µM [quencher, single point].
With `CCC(C)C(=O)N1CCc2cc(-c3csc(N)n3)ccc21` (stereo unspecified) the Potency was inconclusive: 31.6 µM [quencher, side channel, single point].
In the case of `CSc1nnc2c(n1)OC=Nc1ccc(Br)cc1-2`, the Potency is reported as inconclusive: 20 µM [quencher, side channel, single point].
For `CC(C)(C)OC(=O)CC12CCCCC1NC(=O)O2` (stereo unspecified), the Potency was “inactive”.
For `CCNC(=S)Nc1ccc(OCc2nc3ccccc3s2)cc1`, the Potency was “inactive”.
With `CCCCC1(C)OC(=O)C(=Cc2ccc(-c3ccc(Cl)c(C(=O)O)c3)o2)C(=O)O1` (stereo unspecified) the Potency was “inactive”.
In the case of `CCOC(=O)/C(C#N)=C/c1cc2ccccc2nc1N1CCOCC1`, the Potency is reported as inconclusive: 0.891 µM [quencher, side channel, full curve, poor fit].
For `COc1ccc2cc3cc(C(=O)NCCCN4CCOCC4)oc3nc2c1`, the Potency was inconclusive: 12.6 µM [quencher, side channel, partial curve].
For `O=C(NCCN1CCOCC1)c1ccc(Cl)c([N+](=O)[O-])c1`, the Potency was inconclusive: 28.2 µM [quencher, side channel, partial curve].
`COc1ccc(/C=N/Nc2nc(-c3ccc(C)cc3)c(NC(C)=O)s2)cc1` was tested, and the Potency was “inactive”.
In the case of `CCOc1ccc(N2C(=O)CC(Sc3nc(CC(C)C)ccc3C#N)C2=O)cc1` (stereo unspecified), the Potency is reported as inconclusive: 22.4 µM [quencher, side channel, single point].
For `CCOC(=O)C1(CCc2ccccc2)CCN(Cc2ccc(O)cc2)CC1`, the Potency was “inactive”.
`COC(=O)Cc1ccc(NC(=S)N2CCN(c3cc(Cl)ccc3C)CC2)cc1` was tested, and the Potency was “inactive”.
For `Cc1cc(NC(=O)CCCn2nc([N+](=O)[O-])c(Cl)c2C)no1`, the Potency was inconclusive: 14.1 µM [quencher, side channel, partial curve].
For `Cc1cc(-c2ccc(S(=O)(=O)N3CCCCC3)s2)on1`, the Potency was inconclusive: 15.8 µM [quencher, side channel, partial curve].
In the case of `O=C(Nc1ccc(C(=O)O)cc1)Nc1cccc([N+](=O)[O-])c1`, the Potency is reported as inconclusive: 14.1 µM [quencher, side channel, partial curve].
For `COc1ccc(CCNC(=O)c2cc(-c3ccncc3)nc3c(Cl)cccc23)cc1OC`, the Potency was inconclusive: 14.1 µM [quencher, side channel, partial curve].
`COc1ccc2c(c1)CC/C(=C\C=C\c1ccccc1OC)C2=O` was tested, and the Potency was inconclusive: 3.98 µM [quencher, side channel, single point].
`COc1ccc(CC2=C(O)c3ccccc3C(=O)C2=O)cc1` was tested, and the Potency was inconclusive: 15.8 µM [quencher, side channel, partial curve].
`COc1ccc(Cc2nc3c4c(ncn3n2)Oc2c(ccc3ccccc23)C4c2ccc(OC)c(OC)c2)cc1` (stereo unspecified) was tested, and the Potency was inconclusive: 0.1 µM [fluorescent, side channel, full curve].
`OCCC1CN(Cc2cnn(-c3ccccc3Cl)c2)CCN1Cc1ccsc1` (stereo unspecified) was tested, and the Potency was “inactive”.
In the case of `CCOC(=O)Cn1nc(/C=C/c2ccc(C(C)C)cc2)ccc1=O`, the Potency is reported as inconclusive: 25.1 µM [quencher, side channel, partial curve].
With `Cc1ccc(S(=O)(=O)NCC(=O)N(c2ccccc2)C(C(=O)NCc2ccccc2)c2ccco2)cc1` (stereo unspecified) the Potency was inconclusive: 1.12 µM [quencher, side channel, full curve, poor fit].
With `N#Cc1c(N)c2ccccn2c1C(=O)c1ccc(Br)cc1` the Potency was inconclusive: 14.1 µM [quencher, side channel, partial curve].
With `Cc1ccc(CNS(=O)(=O)c2ccc(CN3C(=O)c4cccnc4C3=O)s2)o1` the Potency was inconclusive: 25.1 µM [quencher, partial curve].
`CC1CN(C(=O)c2cc3cc([N+](=O)[O-])ccc3s2)CC(C)O1` (stereo unspecified) was tested, and the Potency was inconclusive: 14.1 µM [quencher, side channel, partial curve].
With `O=[N+]([O-])c1ccc(Sc2n[nH]c(-c3ccccc3)n2)nc1` the Potency was inconclusive: 15.8 µM [quencher, side channel, partial curve].
For `COc1ccc(/C=N/Nc2ncnc3scc(-c4ccccc4)c23)cc1OC`, the Potency was inconclusive: 15.8 µM [quencher, side channel, partial curve].
In the case of `COc1ccc(NC(=O)OCCn2c([N+](=O)[O-])cnc2C)cc1`, the Potency is reported as inconclusive: 28.2 µM [quencher, side channel, single point].
For `Cc1[nH]c2ccccc2c1/C=C(\C#N)C(=O)NCc1ccccc1`, the Potency was “inactive”.
In the case of `COc1ccccc1/C=C/C=N/NC(=O)c1ccco1`, the Potency is reported as inconclusive: 12.6 µM [quencher, side channel, partial curve].
In the case of `CCCCNC(=O)C1CC(c2cccc([N+](=O)[O-])c2)=NO1` (stereo unspecified), the Potency is reported as inconclusive: 20 µM [quencher, side channel, partial curve].
`O=c1[nH]c2ccccc2nc1Cc1ccc([N+](=O)[O-])cc1` was tested, and the Potency was inconclusive: 14.1 µM [quencher, side channel, partial curve].
In the case of `CCCNC(=O)C(NS(=O)(=O)c1cccc2nsnc12)c1ccccc1` (stereo unspecified), the Potency is reported as inconclusive: 12.6 µM [quencher, side channel, partial curve].
In the case of `CCCN(CCC)CCCOC(=O)c1ccc(Cl)cc1Cl`, the Potency is reported as “inactive”.
`NCCCC[C@@H]1NC(=O)c2cc([N+](=O)[O-])cc(F)c2NCCCC[C@@H](C(N)=O)NC(=O)[C@H](CCC(N)=O)NC1=O` was tested, and the Potency was inconclusive: 14.1 µM [quencher, side channel, partial curve].
For `NC(=O)COC(=O)/C=C/c1cccc(Br)c1`, the Potency was inconclusive: 10 µM [quencher, partial curve].
In the case of `O=C1/C(=C/c2ccco2)SC(=S)N1c1cccnc1`, the Potency is reported as inconclusive: 3.16 µM [quencher, side channel, full curve].
In the case of `Cn1c(/C(C#N)=C/c2ccc(O)cc2)nc2ccccc21`, the Potency is reported as “inactive”.
In the case of `O=[N+]([O-])c1ccc(SCCO)nc1SCCO`, the Potency is reported as inconclusive: 6.31 µM [quencher, side channel, partial curve].
With `COc1ccc(CCN2C(=O)CC(NNC(=O)c3ccc(F)cc3)C2=O)cc1OC` (stereo unspecified) the Potency was inconclusive: 28.2 µM [fluorescent, side channel, partial curve].
In the case of `CC1(C)CC(=O)C(c2c[nH]c3ccccc23)C(=O)C1`, the Potency is reported as inconclusive: 25.1 µM [quencher, side channel, single point].
In the case of `Oc1ccc(/C=N/Nc2ccc(Cl)nn2)cc1O`, the Potency is reported as inconclusive: 20 µM [quencher, side channel, partial curve].
In the case of `CCc1ccc2c(CN3CCN(S(=O)(=O)c4cccs4)CC3)cc(=O)oc2c1`, the Potency is reported as “inactive”.
In the case of `COc1ccc(/C=C/C(=O)OCC(=O)c2c(N)n(C)c(=O)n(C)c2=O)cc1`, the Potency is reported as inconclusive: 25.1 µM [quencher, side channel, partial curve].
In the case of `CCOC(=O)/C=c1\s/c(=C\c2c(OC)ccc3ccccc23)c(=O)n1CC(=O)NCC1CCCO1` (stereo unspecified), the Potency is reported as inconclusive: 31.6 µM [quencher, side channel, single point].
